# According to PMC12136788:
# The list shows a part of the results.
# T1: UNK ZnF1-6 (called full-length) (human, UniProt Q9C0B0 30-357)
# T1 sequence: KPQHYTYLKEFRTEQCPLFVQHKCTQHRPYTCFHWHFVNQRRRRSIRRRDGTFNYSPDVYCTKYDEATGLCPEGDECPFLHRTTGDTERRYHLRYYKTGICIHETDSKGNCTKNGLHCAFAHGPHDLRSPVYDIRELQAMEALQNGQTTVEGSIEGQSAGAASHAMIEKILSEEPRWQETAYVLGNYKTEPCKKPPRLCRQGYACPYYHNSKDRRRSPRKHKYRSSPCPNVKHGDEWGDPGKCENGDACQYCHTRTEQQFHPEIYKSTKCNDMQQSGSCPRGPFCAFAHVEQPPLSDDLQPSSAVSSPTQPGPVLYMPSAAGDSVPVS
# B1: chr7:137227872:137228000:-|3pUTR|ENSG00000105894|msi1_unk|FALSE|overlapping (ssRNA)
# RNA: GGGAGUUCUACAGUCCGACGAUCGGAACAUAAAAAGGACAUCAGCAAACAGGAUCAGUUAACUAUUGCAUUUAUAUGUACCGUAGGCUUUGUAUUCAAAAAUUAUCUAUAGCUAAGUACACAAUAAGCAAAAACAAAAAGAAACAACAGAGGAUUGAGCAUCA
# B2: ENSG00000070961:be:win_4401|3pUTR|ENSG00000070961|bound_else_gene|NA|bound_elsewhere_windowed (ssRNA)
# RNA: GGGAGUUCUACAGUCCGACGAUCGUUAUGACAUCUGUCCUAAUUAGUUUCUUAAAUACAUUUACUACUUAAUGGUUUUGAAGCAACUGUUUAAUUUUUAAAAUUUUUGAAAACUUGCUAAUAACCUUUUGUUCAGAAUUUAGUCAACAGAGGAUUGAGCAUCA
# B3: chr22:41117408:41117517:+|CDS|ENSG00000100393|unk|FALSE|unique (ssRNA)
# RNA: GGGAGUUCUACAGUCCGACGAUCCCAGGUCAAGUCAUGGCCAGCCAGGCCCAACAGAGCAGUCCUGGAUUAGGUUUGAUAAAUAGCAUGGUCAAAAGCCCAAUGACACAGGCAGGCUUGACUUCUCCCAACAUGGGGAUGGGCCAACAGAGGAUUGAGCAUCA
# B4: chr8:123014585:123014686:-|3pUTR|ENSG00000136986|msi1|FALSE|unique (ssRNA)
# RNA: GGGAGUUCUACAGUCCGACGAUCGCAGCUAACAUGGGUUAGGUUUAAACCAUGGGGGAUGCAACCCCUUUGCGUUUCAUAUGUAGGCCUACUGGCUUUGUGUAGCUGGAGUAGUUGGGUUGCUUUGUGUUAGGAGGAUCCAGACAACAGAGGAUUGAGCAUCA
# B5: ENSG00000070961:be:win_1151|CDS|ENSG00000070961|bound_else_gene|NA|bound_elsewhere_windowed (ssRNA)
# RNA: GGGAGUUCUACAGUCCGACGAUCCAGUUAUCAUUCUAGUAUUAUAUUUUGUCAUUGACACCUUCUGGGUUCAGAAAAGACCAUGGCUUGCUGAGUGCACACCAAUUUAUAUACAAUACUUUGUGAAGUUCUUCAUUAUUGGAGCAACAGAGGAUUGAGCAUCA
# B6: ENSG00000107863:be:win_5201|CDS|ENSG00000107863|bound_else_gene|NA|bound_elsewhere_windowed (ssRNA)
# RNA: GGGAGUUCUACAGUCCGACGAUCUUGAUGUUAUGAAAAAAGGAAAGUCAACUGGGAGUUUACUGACACCCACCAGAGGCGAAUCCGAAAAACAGGAACCCACAUGGAAAACGAAAAUAGCAGAUCGGUUAAAACUGAGACCCACAACAGAGGAUUGAGCAUCA
# B7: chr12:42456824:42456925:-|3pUTR|ENSG00000139174|unk|total|mutant (ssRNA)
# RNA: GGGAGUUCUACAGUCCGACGAUCAUGAGCCACUGCGUCUGGCAAUAAUGUAACUUUGAAGCUUAAAAAUUAAUCCCAGUUUGCCGCAAUAACAGAAGACUAUCUACAACGGAAGAAAGAAGCAACUGCCUUACAGUUCUGUAACAACAGAGGAUUGAGCAUCA
# B8: chr1:61455842:61455953:+|3pUTR|ENSG00000162599|unk|total|mutant (ssRNA)
# RNA: GGGAGUUCUACAGUCCGACGAUCUUUUCUGUAACAUAUUGGAAAAAGAAAAUGCAGUUAUAUUCCUUUUUUAUUUGUUCCUUCCGUUUGUUUUGGUUCAGCAGUCAGCAGUUAAGUAUAUAACAUGGCCCGCAAGGACAAUGACAACAGAGGAUUGAGCAUCA
# B9: chr8:22006364:22006465:+|3pUTR|ENSG00000130227|msi1|total|mutant (ssRNA)
# RNA: GGGAGUUCUACAGUCCGACGAUCUGUUGCUGCCCGUUGUACACAUCUCCCGUUCAGCUCUUGCCCACGGGACACUCAUCAAUCCGGUUUUAUUUUUAUUUCUUUCCUCUACCCCCAGAAACAAGCCUGUUAAUUUUUUUUCCUCAACAGAGGAUUGAGCAUCA
# B10: ENSG00000198589:be:win_8001|CDS|ENSG00000198589|bound_else_gene|NA|bound_elsewhere_windowed (ssRNA)
# RNA: GGGAGUUCUACAGUCCGACGAUCUGGAGAUAACCCAGGCAGUGAGACUGCUGCUCCUCGGGCCAUUUUGACCGGCCAUGACUAUGAGGUCACAUGUGCUGCGGUGUGUGCGGAGCUAGGCCUGGUGUUGAGUGGUUCACAAGACAACAGAGGAUUGAGCAUCA
# B11: chr16:67638976:67639077:+|3pUTR|ENSG00000102974|unk|FALSE|unique (ssRNA)
# RNA: GGGAGUUCUACAGUCCGACGAUCAAACACUUUUUUCUUCUGUGUAUUGCUUUUAAGAGAGCCAUCAGUUAGCUAUCAGACUCUAGGUUGAUGCAUUUUGUACUUAGCUGUACUGUGUGAUAUUUUUCAUUAUUUUAGGACGCCCAACAGAGGAUUGAGCAUCA
# B12: chrX:11121696:11121802:+|CDS|ENSG00000004961|unk|total|mutant (ssRNA)
# RNA: GGGAGUUCUACAGUCCGACGAUCUGAUGGUGGUGAAGUCAACAAGGACUACCAGUUCACCAUCCUGGACGUCCGUCCUGCCUCCGAUUCACUUUCGGCAGUAUGGGACAGAAUGAAAGUCGCUUGGUGGCGUUGGACCUCGUACAACAGAGGAUUGAGCAUCA
# B13: chr12:108645191:108645284:-|3pUTR|ENSG00000110880|msi1_unk|FALSE|overlapping (ssRNA)
# RNA: GGGAGUUCUACAGUCCGACGAUCUCUUUUUUUUUUUUUUUUUUUAAGCCAUGACAUCCCAGAAGAGGACAGUGAAUUACUCCUAGGUCGGCUCUUAUAGAGUGGCCAUAGUGUUCUGUCAAAACACUUGCUUCCAUUUUCAGACAACAGAGGAUUGAGCAUCA
# B14: chr8:38210141:38210254:+|CDS|ENSG00000156735|unk|total|mutant (ssRNA)
# RNA: GGGAGUUCUACAGUCCGACGAUCGCUGAGCCUCAGCUGUAUGGUAAUGCCACCAGUGACCAUCCCAACAAUCAAGAUCAAAGCCGCAGUCUUCCUGAAGAAUGUGUACCUUCAGAUGAAAGUACUCCUCCGAGUAUUAAAAAACAACAGAGGAUUGAGCAUCA
# B15: chr2:231108229:231108516:-|three_prime_utr|ENSG00000135914|control|control|control (ssRNA)
# RNA: GGGAGUUCUACAGUCCGACGAUCAAGAAUAUCUAAUUUUCCUAAUUUGGACAAGAUUAUUCCAUGAGGAAAAUAAUUUUAUAUAGCUACAAAUGAAAACAAUCCAGCACUCUGGUUAAAUUUUAAGGUAUUCGAAUGAAAUAACAACAGAGGAUUGAGCAUCA
# B16: chr11:6395124:6395533:-|three_prime_utr|ENSG00000166313|control|control|control (ssRNA)
# RNA: GGGAGUUCUACAGUCCGACGAUCCCCUCCACCUGCUUGUGUUGGGCCCCAGGGAACUAAAGGGUGUGGGUCAGGGAGGGGUCUAGAGGCUAUUCCUAGGCCUCAGGCCUCCCAAAUAUGCCCCUCCCCAGUAGCUACGGUUCCCAACAGAGGAUUGAGCAUCA
# B17: chr7:101137467:101137738:+|3pUTR|ENSG00000106366|msi1|FALSE|unique (ssRNA)
# RNA: GGGAGUUCUACAGUCCGACGAUCGUUAAAAGAUGGUAAACCAGAUCUGUCUCCAAGACCUUGGCCUCUCCUUGGAGGACCUUUAGGUCAAACUCCCUAGUCUCCACCUGAGACCCUGGGAGAGAAGUUUGAAGCACAACUCCCCAACAGAGGAUUGAGCAUCA
# B18: ENSG00000198589:be:win_7501|CDS|ENSG00000198589|bound_else_gene|NA|bound_elsewhere_windowed (ssRNA)
# RNA: GGGAGUUCUACAGUCCGACGAUCCUCAAGUUUCCCUCCAACUCCCCUGUUACUCACGUGGCAGCCAACACCCAGCCUGGUUUGGCAACUCCCGCUGUGAUCACAGUCACUGCUAACAGGUUAUUUGCGGUGAACAAAUGGCACCAACAGAGGAUUGAGCAUCA
# B19: chr16:1487315:1487970:-|CDS|ENSG00000251692|control|control|control (ssRNA)
# RNA: GGGAGUUCUACAGUCCGACGAUCGGGGGAGCUGGCGCAGCUCAAGGCCUGGGUGAGGAAGCUGCAGCGCCGAGGCCGGAAAGUAGACACGCGGCUGCGGGCCUUGGACCUCACCCUGGGCGAGAGGAGCCAGCAGCGGGCCCGCAACAGAGGAUUGAGCAUCA
# B20: chr20:13714314:13714426:-|3pUTR|ENSG00000089048|unk|FALSE|unique (ssRNA)
# RNA: GGGAGUUCUACAGUCCGACGAUCUUUUUCUAGCCAUAAAGGAUGGAAGUCAAGAACUUUUUGUUGUUUAGUCAUGUUAAGUAUAGUUUAUGAAAUUAACUUGUAAAUAAAAGUGUAAAAUAUUUUCAUUAUUUUGUAUAGCACCAACAGAGGAUUGAGCAUCA
# B21: chr10:62094764:62094865:+|3pUTR|ENSG00000150347|msi1|FALSE|unique (ssRNA)
# RNA: GGGAGUUCUACAGUCCGACGAUCGAUGAACUCCCCAACCCACUGUGCCCCUCCCGCAACACUACCAGUAGACUUUAGAACCAUAGUUAACUAAGUCUUUUACCUCUGAGAUACUUAAUUCUGGGAAAAUUGGUGACAAUUUUCCAACAGAGGAUUGAGCAUCA
# B22: chr16:58551611:58551719:-|CDS|ENSG00000125107|unk|total|mutant (ssRNA)
# RNA: GGGAGUUCUACAGUCCGACGAUCCUGGCUCAGGCCCAGGCUCAGGCCCAGGUUCCAGCAAAAGCUCCUCUUGCUGGUCAAGUCCGCACUAUGGUAACCACCUCAACAACUACCACUGUUGCUAAAACGGUUACGGUCACCAGGCAACAGAGGAUUGAGCAUCA
# Target: T1, UNK ZnF1-6 (called full-length)
# Experiment: nsRBNS (natural sequence RNA bind-n-seq); RBNS binding buffer (assumed for nsRBNS): 25 mM Tris pH 7.5, 150 mM KCl, 3 mM MgCl2, 0.01% Triton X-100, 500 ug/ml BSA, 20 U/ml SUPERase-In, 4 C; UNK is unkempt and MSI1 is Musashi-1; names of the RNAs are library labels; protein concentration not given here; high values mean tight binding
row,Binder,binding signal [enrichment R]
1,B1,0.791
2,B2,5.85
3,B3,1.14
4,B4,0.611
5,B5,6.68
6,B6,0.518
7,B7,0.293
8,B8,0.421
9,B9,2.95
10,B10,0.695
11,B11,2.13
12,B12,0.608
13,B13,4.79
14,B14,0.499
15,B15,1.88
16,B16,0.496
17,B17,0.446
18,B18,0.528
19,B19,0.727
20,B20,62.3
21,B21,3.7
22,B22,0.536
